T1: activin A (UniProt P08476 311-426)
T1 sequence (looked up): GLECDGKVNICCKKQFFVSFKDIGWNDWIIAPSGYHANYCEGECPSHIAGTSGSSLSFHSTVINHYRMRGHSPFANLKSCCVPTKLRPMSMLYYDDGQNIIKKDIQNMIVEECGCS

T2: BMP9 (UniProt Q9UK05 320-429)
T2 sequence (looked up): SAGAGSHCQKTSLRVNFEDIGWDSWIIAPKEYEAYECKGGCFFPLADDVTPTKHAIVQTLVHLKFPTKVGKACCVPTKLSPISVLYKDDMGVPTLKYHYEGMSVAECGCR

T3: GDF11 (UniProt O95390 299-407)
T3 sequence (looked up): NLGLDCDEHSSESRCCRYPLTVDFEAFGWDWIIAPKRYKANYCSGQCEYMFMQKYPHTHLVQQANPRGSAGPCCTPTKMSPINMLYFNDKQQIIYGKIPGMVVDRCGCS

B1: ActRIIB-G1Fc (unmodified ActRIIB-Fc homodimer) (Fc fusion)
chain: GRGEAETRECIYYNANWELERTNQSGLERCEGEQDKRLHCYASWRNSSGTIELVKKGCWLDDFNCYDRQECVATEENPQVYFCCCEGNFCNERFTHLPEAGGPEVTYEPPPTAPTG[human IgG1 Fc and a few adjoining residues not printed]
B2: ActRIIB(E50K)-Fc homodimer (Fc fusion)
chain: GRGEAETRECIYYNANWELERTNQSGLERCKGEQDKRLHCYASWRNSSGTIELVKKGCWLDDFNCYDRQECVATEENPQVYFCCCEGNFCNERFTHLPEAGGPEVTYEPPPTAPTG[human IgG1 Fc and a few adjoining residues not printed]
B3: ActRIIB(A24N)-Fc homodimer (Fc fusion)
chain: GRGENETRECIYYNANWELERTNQSGLERCEGEQDKRLHCYASWRNSSGTIELVKKGCWLDDFNCYDRQECVATEENPQVYFCCCEGNFCNERFTHLPEAGGPEVTYEPPPTAPTG[human IgG1 Fc and a few adjoining residues not printed]
B4: ActRIIB(E50P)-Fc homodimer (Fc fusion)
chain: GRGEAETRECIYYNANWELERTNQSGLERCPGEQDKRLHCYASWRNSSGTIELVKKGCWLDDFNCYDRQECVATEENPQVYFCCCEGNFCNERFTHLPEAGGPEVTYEPPPTAPTG[human IgG1 Fc and a few adjoining residues not printed]
B5: ActRIIB(E52A)-Fc homodimer (Fc fusion)
chain: GRGEAETRECIYYNANWELERTNQSGLERCEGAQDKRLHCYASWRNSSGTIELVKKGCWLDDFNCYDRQECVATEENPQVYFCCCEGNFCNERFTHLPEAGGPEVTYEPPPTAPTG[human IgG1 Fc and a few adjoining residues not printed]
B6: ActRIIB(K55D)-Fc homodimer (Fc fusion)
chain: GRGEAETRECIYYNANWELERTNQSGLERCEGEQDDRLHCYASWRNSSGTIELVKKGCWLDDFNCYDRQECVATEENPQVYFCCCEGNFCNERFTHLPEAGGPEVTYEPPPTAPTG[human IgG1 Fc and a few adjoining residues not printed]
B7: ActRIIB(E52K)-Fc homodimer (Fc fusion)
chain: GRGEAETRECIYYNANWELERTNQSGLERCEGKQDKRLHCYASWRNSSGTIELVKKGCWLDDFNCYDRQECVATEENPQVYFCCCEGNFCNERFTHLPEAGGPEVTYEPPPTAPTG[human IgG1 Fc and a few adjoining residues not printed]
B8: ActRIIB(K55R)-Fc homodimer (Fc fusion)
chain: GRGEAETRECIYYNANWELERTNQSGLERCEGEQDRRLHCYASWRNSSGTIELVKKGCWLDDFNCYDRQECVATEENPQVYFCCCEGNFCNERFTHLPEAGGPEVTYEPPPTAPTG[human IgG1 Fc and a few adjoining residues not printed]
B9: ActRIIB(F82K)-G1Fc homodimer (Fc fusion)
chain: GRGEAETRECIYYNANWELERTNQSGLERCEGEQDKRLHCYASWRNSSGTIELVKKGCWLDDKNCYDRQECVATEENPQVYFCCCEGNFCNERFTHLPEAGGPEVTYEPPPTAPTG[human IgG1 Fc and a few adjoining residues not printed]
B10: ActRIIB(F82I)-G1Fc homodimer (Fc fusion)
chain: GRGEAETRECIYYNANWELERTNQSGLERCEGEQDKRLHCYASWRNSSGTIELVKKGCWLDDINCYDRQECVATEENPQVYFCCCEGNFCNERFTHLPEAGGPEVTYEPPPTAPTG[human IgG1 Fc and a few adjoining residues not printed]
B11: ActRIIB(K55E)-G1Fc homodimer (Fc fusion)
chain: GRGEAETRECIYYNANWELERTNQSGLERCEGEQDERLHCYASWRNSSGTIELVKKGCWLDDFNCYDRQECVATEENPQVYFCCCEGNFCNERFTHLPEAGGPEVTYEPPPTAPTG[human IgG1 Fc and a few adjoining residues not printed]
B12: ActRIIB(K55A)-G1Fc homodimer (Fc fusion)
chain: GRGEAETRECIYYNANWELERTNQSGLERCEGEQDARLHCYASWRNSSGTIELVKKGCWLDDFNCYDRQECVATEENPQVYFCCCEGNFCNERFTHLPEAGGPEVTYEPPPTAPTG[human IgG1 Fc and a few adjoining residues not printed]
B13: ActRIIB(R40A)-Fc homodimer (Fc fusion)
chain: GRGEAETRECIYYNANWELEATNQSGLERCEGEQDKRLHCYASWRNSSGTIELVKKGCWLDDFNCYDRQECVATEENPQVYFCCCEGNFCNERFTHLPEAGGPEVTYEPPPTAPTG[human IgG1 Fc and a few adjoining residues not printed]
B14: ActRIIB(F82W/N83A)-Fc homodimer (Fc fusion)
chain: GRGEAETRECIYYNANWELERTNQSGLERCEGEQDKRLHCYASWRNSSGTIELVKKGCWLDDWACYDRQECVATEENPQVYFCCCEGNFCNERFTHLPEAGGPEVTYEPPPTAPTG[human IgG1 Fc and a few adjoining residues not printed]
B15: ActRIIB(K74R)-Fc homodimer (Fc fusion)
chain: GRGEAETRECIYYNANWELERTNQSGLERCEGEQDKRLHCYASWRNSSGTIELVRKGCWLDDFNCYDRQECVATEENPQVYFCCCEGNFCNERFTHLPEAGGPEVTYEPPPTAPTG[human IgG1 Fc and a few adjoining residues not printed]
B16: ActRIIB(Y60P)-Fc homodimer (Fc fusion)
chain: GRGEAETRECIYYNANWELERTNQSGLERCEGEQDKRLHCPASWRNSSGTIELVKKGCWLDDFNCYDRQECVATEENPQVYFCCCEGNFCNERFTHLPEAGGPEVTYEPPPTAPTG[human IgG1 Fc and a few adjoining residues not printed]
B17: ActRIIB(F82W)-Fc homodimer (Fc fusion)
chain: GRGEAETRECIYYNANWELERTNQSGLERCEGEQDKRLHCYASWRNSSGTIELVKKGCWLDDWNCYDRQECVATEENPQVYFCCCEGNFCNERFTHLPEAGGPEVTYEPPPTAPTG[human IgG1 Fc and a few adjoining residues not printed]
B18: ActRIIB(Y60K)-Fc homodimer (Fc fusion)
chain: GRGEAETRECIYYNANWELERTNQSGLERCEGEQDKRLHCKASWRNSSGTIELVKKGCWLDDFNCYDRQECVATEENPQVYFCCCEGNFCNERFTHLPEAGGPEVTYEPPPTAPTG[human IgG1 Fc and a few adjoining residues not printed]
B19: ActRIIB(L79R)-Fc homodimer (Fc fusion)
chain: GRGEAETRECIYYNANWELERTNQSGLERCEGEQDKRLHCYASWRNSSGTIELVKKGCWRDDFNCYDRQECVATEENPQVYFCCCEGNFCNERFTHLPEAGGPEVTYEPPPTAPTG[human IgG1 Fc and a few adjoining residues not printed]
B20: ActRIIB(L79K)-Fc homodimer (Fc fusion)
chain: GRGEAETRECIYYNANWELERTNQSGLERCEGEQDKRLHCYASWRNSSGTIELVKKGCWKDDFNCYDRQECVATEENPQVYFCCCEGNFCNERFTHLPEAGGPEVTYEPPPTAPTG[human IgG1 Fc and a few adjoining residues not printed]

molecular target: T1, activin A; experiment: cell-based or functional assay

IC50 of inhibition of ligand signaling, A204 CAGA12 luciferase reporter assay [µg/mL]	Binder
0.008	B1
0.132	B2
0.128	B3
0.756	B4
0.198	B5
0.396	B6
0.762	B7
0.206	B8
0.01	B9
0.011	B10
0.019	B11
0.015	B12

molecular target: T2, BMP9; experiment: cell-based or functional assay

IC50 of inhibition of ligand signaling, A204 CAGA12 luciferase reporter assay [µg/mL]	Binder
0.031	B1
0.721	B2
0.409	B3
~3	B4
1.21	B13
0.359	B5
~40	B14
5.5	B6
~10	B7
0.165	B15
0.777	B8
~5	B9
0.277	B10
0.29	B11
0.122	B12

molecular target: T3, GDF11; experiment: cell-based or functional assay

IC50 of inhibition of ligand signaling, A204 CAGA12 luciferase reporter assay [µg/mL]	Binder
0.009	B1
0.18	B2
0.099	B3
0.544	B16
0.638	B4
0.591	B13
0.071	B5
0.276	B17
0.389	B14
0.365	B6
0.296	B7
0.045	B15
0.414	B18
0.234	B19
0.318	B8
0.015	B9
0.477	B20
0.009	B10
0.014	B11
0.011	B12

Reference: US20200055919A1 (ACCELERON PHARMA, published 2020)
